Results reported in PubChem BioAssay AID1346428 (National Center for Advancing Translational Sciences (NCATS), 2018).
In all, about 48,000 compounds went through this assay and about 1,200 (2.5%) were called active. Roughly 2% stayed inconclusive and do not appear here.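 The calls were made as follows: active = activation of at least 60% and not above a set upper limit (about 1 call in 100 departs from these limits); inconclusive = activation of 40% to 60%, or above that upper limit; inactive = activation under 40%.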 The list shows a part of the results.

Each compound was assayed against Probable G-protein coupled receptor 32 (Homo sapiens) (UniProt O75388) (assay: qHTS for Agonists of Human Resolvin D1 Receptor DRV1). Conditions: CHO-K1 GPR32 beta-arrestin PathHunter luminescence, 90 min; at 76.9 µM; stronger effect = higher value; zero percent set by DMSO-only wells.
Sequence of UniProt O75388 (O75388 whole entry, looked up): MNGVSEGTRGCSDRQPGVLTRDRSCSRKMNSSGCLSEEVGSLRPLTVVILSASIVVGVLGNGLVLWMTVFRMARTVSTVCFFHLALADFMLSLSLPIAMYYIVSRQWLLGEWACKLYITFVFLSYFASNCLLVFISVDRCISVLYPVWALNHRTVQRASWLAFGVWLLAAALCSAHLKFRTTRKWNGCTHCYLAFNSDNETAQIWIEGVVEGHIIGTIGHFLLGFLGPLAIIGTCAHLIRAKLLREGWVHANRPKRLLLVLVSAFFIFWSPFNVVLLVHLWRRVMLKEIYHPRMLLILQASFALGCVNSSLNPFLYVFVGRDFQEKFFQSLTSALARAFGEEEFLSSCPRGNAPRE
Outline: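 Beta-arrestin recruitment read-out: luminescence from complemented beta-Gal in CHO-K1 GPR32 PathHunter cells, measured 1 h after detection reagent at ambient temperature following 90 min compound exposure at 37 °C; DMSO served as basal (EC0) control.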
With `O=C(c1ccc2c(c1)N(Cc1ccccc1)C(=O)c1ccccc1S2=O)N1CCC(Cc2ccccc2)CC1` (centres undefined) the activation was inactive: 19.4%. For `COc1ccccc1Nc1ncc(C(=O)Nc2ccc(OC)c(OC)c2)c2ccccc12`, the activation was inactive: 2.17%. In the case of `COc1ccc(NC(=O)NCC2CCN(Cc3ccccc3F)CC2)c(OC)c1`, the activation is reported as inactive: -7.81%. `COc1ccccc1CNC(=O)c1cnc2sc(N3CCOCC3)nn2c1=O` was tested, and the activation was inactive: -9.32%. In the case of `COc1ccc(N2CCN(C(=O)Cn3nc(Cc4cccnc4)c4ccccc4c3=O)CC2)cc1`, the activation is reported as inactive: -8.06%. In the case of `CC(=O)N[C@H]1[C@H]([C@H](O)[C@H](O)CO)OC(C(=O)O)=C[C@@H]1N=C(N)N`, the activation is reported as inactive: -0.0498%. `Cc1ccc(Nc2ncnc3c2nc2n3CCCC2)c(Br)c1` was tested, and the activation was inactive: -11.4%. For `Cn1cc(C(=O)NCCc2ccc(Cl)cc2)c(=O)c2cc(S(=O)(=O)N3CCCCC3)ccc21`, the activation was inactive: -0.505%. For `COC(=O)c1ccc(Cn2nnc3c(=O)[nH]c(C4CCCN(S(=O)(=O)c5ccccc5)C4)nc32)cc1` (centres undefined), the activation was inactive: 1.48%. `COc1ccc2nc(N(Cc3cccnc3)C(=O)COc3ccccc3)sc2c1` was tested, and the activation was inactive: -27.6%. For `COC(=O)c1cc(S(=O)(=O)N2CCN(c3ccc(F)cc3)CC2)cn1C`, the activation was inactive: 31.6%. For `COc1ccccc1CNC(=O)c1ccc2c(c1)CCN2S(=O)(=O)c1ccc(Cl)cc1`, the activation was inactive: -10.3%. In the case of `O=C(O)c1ccc2c(c1)N(Cc1ccc(F)cc1Cl)C(=O)c1ccccc1S2`, the activation is reported as inactive: 1.49%. `COc1ccc(CCNC(=O)c2cc(S(=O)(=O)N3CCCC(C)C3)cn2C)cc1OC` (centres undefined) was tested, and the activation was inactive: 34%. With `N=C(N)SCCN` the activation was inactive: 12.5%. For `COc1ccc(NC(=O)CCS(=O)(=O)c2nc(-c3ccc4c(c3)OCO4)cc(C(F)(F)F)n2)c(OC)c1`, the activation was inactive: -6.89%. With `CC(C)N(Cc1ccccc1)C(=O)CN1C(=O)COc2ccc(S(=O)(=O)N3CCCCCC3)cc21` the activation was inactive: -53.1%. In the case of `CCN(C(=O)c1cnc(N2CCOCC2)c2ccccc12)c1cc(C)ccc1C`, the activation is reported as inactive: -17.8%. With `CCOc1ccccc1NC(=O)c1ccc2c(Cl)c3c(nc2c1)CCCC3` the activation was inactive: 34.8%. `Cc1cc(NC(=O)C(C)(C)Oc2ccc(Cl)cc2)cc(-c2nc3ncccc3o2)c1O` was tested, and the activation was inactive: -20.9%. `CC(=O)Nc1ccc(NC(=O)CCC(=O)c2ccc(C)cc2)cc1` was tested, and the activation was inactive: 8.91%. For `O=C(OCc1cc(=O)n2nc(-c3cccs3)sc2n1)c1ccccc1Br`, the activation was inactive: 2.76%. `CCOc1ccc(-c2nnc(SCC(=O)NCCc3ccccc3)nc2-c2ccc(OCC)cc2)cc1` was tested, and the activation was inactive: -6.72%. In the case of `COc1cccc(CNc2nc3c(-c4cccc(C)c4)nnn3c3ccccc23)c1`, the activation is reported as inactive: -12.6%. `CCOc1ccccc1NC(=O)c1cnc(N2CCOCC2)c2ccccc12` was tested, and the activation was inactive: -22.5%. In the case of `COc1ccc(OCc2nc3c4c(-c5ccc(OC)cc5)c(-c5ccc(OC)cc5)oc4ncn3n2)cc1`, the activation is reported as inactive: 1.54%. With `CNc1oc(-c2ccc(COc3ccc(C)cc3)o2)nc1C#N` the activation was inactive: 5.06%. `CCCn1c2ccccc2c2cnn(CC(=O)Nc3ccc(C)cc3Br)c(=O)c21` was tested, and the activation was inactive: -15.5%. `Cc1cc2ccccc2n2c(SCC(=O)Nc3cccc(C(F)(F)F)c3)nnc12` was tested, and the activation was inactive: -9.13%. `CCOC(=O)c1ccc(NC(=O)CSc2nccn2Cc2ccc(OC)cc2)cc1` was tested, and the activation was inactive: -5.88%. `Cc1cc(C)cc(C(=O)Nc2nnc3n2CCS3)c1` was tested, and the activation was inactive: -125%. `CC(=O)c1cccc(NC(=O)c2c(C)nn(-c3ccc(F)cc3)c2-n2cccc2)c1` was tested, and the activation was inactive: -3.44%. For `COC(=O)c1cc(NC(=O)c2ccc3c(c2)N(Cc2cccc(Cl)c2)C(=O)c2ccccc2S3=O)cc(C(=O)OC)c1` (centres undefined), the activation was inactive: -16.2%. `CCCCCN1C(C(=O)c2ccccc2)=C(NC(C)=O)c2ccccc2S1(=O)=O` was tested, and the activation was inactive: -8.53%. With `O=C(CSc1ncc2c(n1)-c1cc(Cl)ccc1N(Cc1ccccc1F)S2(=O)=O)Nc1cccc(C(F)(F)F)c1` the activation was inactive: -16.2%. In the case of `Cc1cc(Cl)ccc1OCC(=O)N(Cc1ccc(N(C)C)cc1)CC1CCCO1` (centres undefined), the activation is reported as inactive: -3.24%. For `CC(C)Nc1ccc(-c2nc(-c3ccccn3)no2)cc1[N+](=O)[O-]`, the activation was inactive: 12.1%. In the case of `Cc1cccc(CNC(=O)c2sc3ncnc(N(C)C4CCCCC4)c3c2C)c1`, the activation is reported as inactive: -13.5%. With `O=C(C1CC1)N1CCN(c2nc3c(F)cc(F)cc3s2)CC1` the activation was inactive: 20.2%. In the case of `CCN(CC)c1nc(-c2ccccc2Cl)c2cc(Br)ccc2n1`, the activation is reported as inactive: -8.72%. `Cc1nn(-c2ccccc2)c2nc(C3CC3)cc(C(=O)NCc3ccccc3Cl)c12` was tested, and the activation was inactive: -18.2%. For `CCc1ccc(NC(=O)c2sc3nc(C)c(Cl)c(C)c3c2NC(=O)c2ccccc2)cc1`, the activation was inactive: -2.23%. For `COc1ccc(C)cc1NC(=O)CCNS(=O)(=O)c1cccc2nonc12`, the activation was inactive: -15.1%. With `O=C(CO)[C@@H](O)[C@H](O)[C@@H](O)CO` the activation was inactive: 7.28%. For `CCc1ccccc1Nc1ncnc2c1cnn2-c1ccc(Cl)cc1`, the activation was active: 73.1%. In the case of `CSCCC(NS(=O)(=O)c1cccs1)C(=O)Nc1ccc(C)c(Cl)c1` (centres undefined), the activation is reported as inactive: 39.6%. For `COC(=O)c1ccc(Cn2c(SCC(=O)NCc3ccccc3)nc3ccccc32)cc1`, the activation was inactive: -6.47%. In the case of `CCOc1ccc(CCNC(=O)c2ccc(CS(=O)(=O)c3ccccc3C)o2)cc1OCC`, the activation is reported as inactive: 32.8%. In the case of `CCOC(=O)c1cnc2ccc(C(=O)OC)cc2c1Nc1ccc(N2CCOCC2)cc1`, the activation is reported as inactive: 4.21%. With `COc1ccc(Cl)cc1NC(=O)c1ncn(-c2ccccc2)n1` the activation was inactive: 32.5%. For `COc1ccc(OC)c(NC(=O)Cc2c(C)n(C(=O)c3ccc(Cl)cc3)c3ccc(OC)cc23)c1`, the activation was inactive: -19.9%. With `CC(=O)c1ccc(NC(=O)CSc2nnc(NC(=O)Nc3ccccc3)s2)cc1` the activation was inactive: 2.86%. In the case of `Cc1ccc(C)c(Cn2c(=O)n(Cc3ccco3)c(=O)c3oc4ccccc4c32)c1`, the activation is reported as inactive: 5.2%. In the case of `CCc1ccc(NC(=O)Cn2c(=O)n(-c3ccccc3)c(=O)c3ccc(C(=O)NCc4ccc5c(c4)OCO5)cc32)cc1`, the activation is reported as inactive: -3.26%.
